Assay results from the supplement of paper PMC7826260.
Some of the results follow. The data describe in vitro nicking of single-stranded DNA by Rep domains at 3 µM enzyme and 37 °C for 1 h; the strands have 90 letters, of which the middle is given. Values are log2 of uncut reads against the no-enzyme pool; the lower, the more was cut; hits are not called. The scaling is to total reads, so uncut sequences can rise above 0 when many others are cut.

What was measured:
Experiment in all cases: uncleaved DNA left, log2 of reads against the no-enzyme library (log2 ratio); higher = less cleavage (more negative = more Rep cleavage of the k-mer); sequences stand for … in CTCGTCCG…ACCGGAGA
[1] = tested on: T1, Rep nickase domain of Muscovy duck circovirus
T1 sequence (Rep 1-111, printed without the tag): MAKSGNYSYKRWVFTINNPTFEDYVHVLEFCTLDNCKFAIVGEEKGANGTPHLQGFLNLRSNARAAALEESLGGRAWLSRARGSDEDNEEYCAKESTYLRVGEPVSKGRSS
Description: (§1)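 A pool of 90-nt single-stranded DNAs with seven random bases just before the constant AC of the nick site (name = the seven bases) was cut by 3 µM recombinant His6-SUMO-tagged Rep nickase domain (300 nM DNA, 50 mM HEPES pH 8.0, 50 mM NaCl, 1 mM MnCl2, 1 h, 37 °C, three replicates). Uncut DNA was amplified and sequenced.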

[2] = tested on: T2, Rep nickase domain of banana bunchy top virus
T2 sequence (Rep 1-94, printed without the tag): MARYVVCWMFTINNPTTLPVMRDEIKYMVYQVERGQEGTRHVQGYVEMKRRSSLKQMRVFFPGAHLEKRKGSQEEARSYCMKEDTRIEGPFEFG
Description: as §1

[3] = tested on: T3, Rep nickase domain of cabbage leaf curl virus
T3 sequence (Rep 1-116, printed without the tag): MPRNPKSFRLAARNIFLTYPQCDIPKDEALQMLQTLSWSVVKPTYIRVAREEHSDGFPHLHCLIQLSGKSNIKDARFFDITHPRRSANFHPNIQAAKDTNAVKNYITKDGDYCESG
Description: as §1

[4] = tested on: T4, Rep nickase domain of chickpea chlorotic dwarf virus
T4 sequence (Rep 1-124, printed without the tag): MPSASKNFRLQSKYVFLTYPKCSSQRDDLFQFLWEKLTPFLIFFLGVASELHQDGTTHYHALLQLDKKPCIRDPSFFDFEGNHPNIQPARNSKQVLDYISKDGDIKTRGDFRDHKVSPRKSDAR
Description: as §1

[5] = tested on: T5, Rep nickase domain of faba bean necrotic yellows virus
T5 sequence (Rep 1-98, printed without the tag): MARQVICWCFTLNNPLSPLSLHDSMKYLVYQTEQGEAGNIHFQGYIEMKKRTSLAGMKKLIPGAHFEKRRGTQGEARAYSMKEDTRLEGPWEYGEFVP
Description: as §1

[6] = tested on: T6, Rep nickase domain of maize striate mosaic virus
T6 sequence (Rep 1-117, printed without the tag): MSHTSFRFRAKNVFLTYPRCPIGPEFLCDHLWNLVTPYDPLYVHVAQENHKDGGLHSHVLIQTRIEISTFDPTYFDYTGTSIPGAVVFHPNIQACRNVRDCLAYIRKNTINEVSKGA
Description: as §1

[7] = tested on: T7, Rep nickase domain of porcine circovirus 2
T7 sequence (Rep 2-116, printed without the tag): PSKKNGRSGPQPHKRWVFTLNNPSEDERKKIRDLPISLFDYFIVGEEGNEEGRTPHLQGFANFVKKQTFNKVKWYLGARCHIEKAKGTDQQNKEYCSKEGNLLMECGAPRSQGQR
Description: as §1

[8] = tested on: T8, Rep nickase domain of tomato golden mosaic virus
T8 sequence (Rep 1-124, printed without the tag): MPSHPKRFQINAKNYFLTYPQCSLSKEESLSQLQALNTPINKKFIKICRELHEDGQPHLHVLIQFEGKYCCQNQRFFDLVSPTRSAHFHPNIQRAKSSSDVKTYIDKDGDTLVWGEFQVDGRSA
Description: as §1

[9] = tested on: T9, Rep nickase domain of tomato yellow leaf curl virus
T9 sequence (Rep 1-136, printed without the tag): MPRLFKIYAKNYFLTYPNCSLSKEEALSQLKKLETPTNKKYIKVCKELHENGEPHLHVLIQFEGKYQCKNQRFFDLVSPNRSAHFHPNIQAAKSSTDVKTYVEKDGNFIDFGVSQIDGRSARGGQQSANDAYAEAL
Description: as §1

[10] = tested on: T10, Rep nickase domain of wheat dwarf virus
T10 sequence (Rep 1-137, printed without the tag): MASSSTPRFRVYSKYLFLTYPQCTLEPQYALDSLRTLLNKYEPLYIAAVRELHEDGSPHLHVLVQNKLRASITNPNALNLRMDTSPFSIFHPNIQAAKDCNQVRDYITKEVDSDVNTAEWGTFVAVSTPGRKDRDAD
Description: as §1

Row | Sequence | uncleaved DNA left (log2) [1] | uncleaved DNA left (log2) [2] | uncleaved DNA left (log2) [3] | uncleaved DNA left (log2) [4] | uncleaved DNA left (log2) [5] | uncleaved DNA left (log2) [6] | uncleaved DNA left (log2) [7] | uncleaved DNA left (log2) [8] | uncleaved DNA left (log2) [9] | uncleaved DNA left (log2) [10]
1 | CAGCCCA | 0.0517 | -0.0702 | -0.141 | -2.01 | -0.027 | -0.324 | -0.713 | -0.0525 | -0.0476 | -0.135
2 | CAAACTG | 0.0073 | 0.0799 | 0.0817 | 0.613 | 0.072 | 0.961 | 0.013 | 0.0734 | -0.0197 | 0.01
3 | CAGGCCC | -0.138 | -0.0708 | 0.00965 | 0.294 | -0.0613 | 0.447 | -0.0885 | -0.0718 | -0.125 | -0.0185
4 | CGTTATA | -0.077 | 0.0836 | -0.00778 | -0.722 | -0.0169 | -0.0893 | -0.0821 | -0.0328 | 0.00631 | 0.0901
5 | GCCAAGT | -0.0783 | 0.1 | 0.255 | 0.415 | -0.0865 | -0.148 | 0.0981 | 0.123 | 0.103 | 0.0683
6 | GCCCCCG | -0.173 | -0.0481 | -0.646 | -0.564 | -0.0187 | -0.598 | -0.0525 | -0.135 | -0.0727 | -0.176
7 | TGAAGGA | 0.0951 | -0.0176 | 0.156 | 0.328 | -0.0249 | -0.185 | 0.0896 | -0.049 | 0.021 | 0.0891
8 | TAATTGA | -0.0796 | 0.12 | -2.71 | -2.62 | 0.111 | -1.56 | -0.104 | -0.34 | 0.0924 | -0.772
9 | TCGAGTA | -0.0307 | -0.0493 | -0.0359 | -0.199 | 0.0294 | 0.0487 | -0.596 | 0.021 | 0.0156 | -0.0457
10 | TATAAGT | 0.0899 | -0.0678 | 0.0118 | -1.28 | 0.0688 | -0.858 | -1.16 | 0.0771 | 0.138 | 0.00958
11 | ATAGAAT | 0.129 | -0.0136 | 0.379 | 1.01 | 0.166 | 1.2 | 0.14 | 0.121 | 0.0542 | 0.0749
12 | CATACTG | -0.171 | -0.000692 | -0.195 | 0.304 | -0.139 | 0.596 | -0.0601 | -0.0219 | -0.18 | -0.0463
13 | GCCGGAA | 0.0839 | -0.0392 | 0.354 | 0.827 | 0.0313 | 0.684 | 0.104 | -0.0126 | -0.0951 | -0.0165
14 | TGGTACT | -1.57 | -0.108 | 0.104 | -0.776 | -0.228 | 1.78 | -3.66 | -0.0907 | 0.0751 | 0.0116
